Experimental data: PubChem BioAssay AID652104 (National Center for Advancing Translational Sciences (NCATS), 2013)
The campaign covered roughly 410,000 compounds. About 7,200 (1.8%) were called active. The call rests on the fitted dose curve; in most records, active means well fitted activation curve with a large enough effect; inconclusive means small, poorly fitted or top-dose-only effect, or another doubt; inactive means no such curve, though single readings can be large or run the other way. The inconclusive results got no clear call from the source. No potency is given beside an inconclusive call; the fits are too rough.

assay: qHTS of TDP-43 Inhibitors; details: TDP-43 expressing yeast growth rescue, BacTiter-Glo, 24 h; series mostly up to 46.1 µM; further: nearly all actives have a fitted effect of over 50% in size
Text: The goal of this project is to identify new chemical probes capable of reversing the toxicity associated with TDP-43 which is associated with frontotemporal lobar degeneration and amyotrophic lateral sclerosis. These compounds will provide a complementary approach to deciphering the tangled mechanisms of toxicity and protection that we have uncovered through genome-wide genetic screens and are beginning to uncover in a large-scale proteomics analysis with mass spectroscopy.
To this end, a miniaturized assay was developed to be screened against the Molecular Libraries Small Molecule Repository (MLSMR) to discover TDP-43 inhibitors. Please note that in the set-up this yeast-based assay compounds that inhibit as TDP-43, have a read-out as activators.
NIH Chemical Genomics Center [NCGC]
NIH Molecular Libraries Probe Centers Network [MLPCN]
Assay Submitter (PI): Susan Lindquist, Whitehead Institute/MIT
Dispense 2.5 microL yeast galactose medium per 1536-well plate, pin compound, dispense 2.5 microL TDP-43 expressing yeast in galactose medium at OD600=0.02 (pregrown in raffinose medium to mid-log phase) per well, incubate for 24 hr at 30 deg C, and cell growth will be measured using 5 microL of Bactiter/Glo reagent to entire plate and read using Luminescence Protocol in ViewLux.
Potency means the concentration at half of the fitted maximal effect; tags describe the fitted curve by direction and shape.

| Compound | Potency |
| --- | --- |
| CCCCCCc1c(C)c2ccc(OCC(=O)N[C@@H](Cc3ccccc3)C(=O)O)cc2oc1=O | inconclusive [activator, full curve] |
